Measurements: PubChem BioAssay AID485364 (National Center for Advancing Translational Sciences (NCATS), 2010)
Where “and” joins values, the source holds several entries; their conditions need not be identical. Identical values can stand only once. Among all 360,000 compounds or so, about 11,000 (3.1%) were called active. The inconclusive results got no clear call from the source; some entries with a clear call stand among them for comparison. The call rests on the fitted dose curve; in most records, active means well fitted inhibition curve with a large enough effect; inconclusive means small, poorly fitted or top-dose-only effect; inactive means no such curve, though single readings can be large or run the other way. Potencies of inconclusive entries are left out as doubtful fits.
Further: nearly all actives have a fitted effect of over 60% in size.
Potency means the concentration at half of the fitted maximal effect; tags describe the fitted curve by direction and shape.

These compounds were tested against Schistosoma mansoni thioredoxin glutathione reductase (TGR) (UniProt Q962Y6) (assay: qHTS Assay for the Inhibitors of Schistosoma Mansoni Peroxiredoxins). Settings: purified TGR, DTNB reduction, TNB absorbance 405 nm; series mostly up to 114 µM.
In short: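 Kinetic colorimetric format: TGR-catalysed, NADPH-driven DTNB reduction monitored via TNB absorbance. Enzyme dispensed at 20 nM; compound exposure 15 min at room temperature before reaction start.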
In the case of Cc1cccc(-n2nc3c(c2NC(=O)c2ccco2)CSC3)c1C, the Potency was active: 44.7 µM. In the case of Cc1ccc(C(=O)N2CCN(c3ncnc4c(C)csc34)CC2)cc1, the Potency was “inactive”. For COc1cccc(C(=O)Nc2ccc(N(C)C)cc2)c1OC, the Potency was inconclusive [inhibitor, single point]. COc1ccc(C)cc1Nc1n[n+](C)c(-c2c3ccccc3cc3ccccc23)s1 was tested, and the Potency was inconclusive [inhibitor, partial curve]. CC(=O)c1ccc(S(=O)(=O)N2CCCC2)cc1 was tested, and the Potency was active: 44.7 µM. O=C(O)/C=C\C(=O)Nc1ccc(F)c(F)c1F was tested, and the Potency was inconclusive [inhibitor, partial curve]. In the case of CCOc1cc(C(=O)Nc2ccc(C)cc2O)ccc1OCC(=O)N1CCOCC1, the Potency was inconclusive [inhibitor, single point]. For CCOC(=O)c1ccc(NC(=O)Cn2cccc2)cc1, the Potency was inconclusive [inhibitor, partial curve]. COc1ccc(NC(=O)C2CCCN(S(C)(=O)=O)C2)c(OC)c1 (stereo not given) was tested, and the Potency was inconclusive [inhibitor, single point]. CCc1ccccc1S(=O)(=O)Cc1ccc(C(=O)N2CCN(c3ccccc3OC)CC2)o1 was tested, and the Potency was inconclusive [inhibitor, partial curve]. In the case of CCOC(=O)c1cccc(NC(=O)c2cc(C)nc3c2c(C)nn3-c2ccc(C)cc2)c1, the Potency was “inactive”. For O=C1CCCc2oc3c(c21)CCCC3, the Potency was inconclusive [inhibitor, single point]. CC(C)(C)C(=O)NC(=S)Nc1ccc(S(=O)(=O)Nc2nccs2)cc1 was tested, and the Potency was inconclusive [inhibitor, partial curve]. In the case of COc1ccc2c3c(cccc13)C(=O)CC2, the Potency was “inactive”. In the case of CCCOc1ccc(/C=C2/C(=O)ON=C2C)cc1Cl, the Potency was inconclusive [inhibitor, partial curve, poor fit]. For Oc1ccc(NCc2ccccc2OCc2ccccc2)cc1, the Potency was active: 22.4 µM and active: 14.1 µM. In the case of Cc1cc(C)cc(C(=O)NC(=S)Nc2cccnc2)c1, the Potency was inconclusive [inhibitor, partial curve, poor fit]. In the case of O=C(CCS(=O)(=O)c1ccc(Br)s1)NCc1ccccc1, the Potency was inconclusive [inhibitor, full curve]. For O=C(CC(c1ccccc1)c1ccco1)Nc1nccs1 (stereo not given), the Potency was inconclusive [inhibitor, full curve]. For COc1ccccc1N=Cc1nc(-c2ccccc2)oc1OC(C)=O, the Potency was inconclusive [inhibitor, partial curve, poor fit].
